# Among all 310,000 compounds or so, about 18,000 (5.8%) were called active. The shares of active, inactive and inconclusive entries below differ from those in the screen. Calls come from the whole dose curve; as a rule, active = well fitted inhibition curve with a large enough effect; inconclusive = small, poorly fitted or top-dose-only effect, or another doubt; inactive = no such curve, though single readings can be large or run the other way. No potency is given beside an inconclusive call; the fits are too rough.
# Experiment: Primary qHTS for delayed death inhibitors of the malarial parasite plastid, 48 hour incubation
# Settings: P. falciparum luciferase growth in erythrocytes; series mostly up to 28.7 µM
# In short: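 In quantitative HTS format, infected erythrocytes bearing luciferase-reporter parasites were treated for a single generation at 37 C. Luminescence after adding detection reagent served as the growth measure.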
# Potency is the fitted concentration of half-maximal effect; tags give direction and shape of the fitted curve.
row,Structure (SMILES),Potency
1,COc1ccccc1N1CCN(C(=O)c2cc(=O)c3c(C)cc(C)cc3o2)CC1,"inconclusive [inhibitor, single point]"
2,Cc1ccc(C)c(NC(=O)c2cc(-c3ccccc3O)n[nH]2)c1,"inconclusive [inhibitor, single point]"
3,COc1ccc(-c2ncc3ccccn23)cc1OC,"inconclusive [inhibitor, single point]"
4,CC1=C(C(=O)Nc2ccccc2)C(c2ccco2)C(C#N)=C(SCc2ccccc2)N1 (stereo unspecified),active: 8.28 µM
5,Cc1cc(Oc2nc3ccccn3c(=O)c2/C=C(\C#N)C(=O)NC2CCS(=O)(=O)C2)ccc1Cl (stereo unspecified),"inconclusive [inhibitor, single point]"
6,CCOC(=O)/C=C/C(=O)Nc1ccc(S(=O)(=O)N(C)c2ccccc2)cc1,"inconclusive [inhibitor, full curve, poor fit]"
7,NC(=O)c1cc(-c2ccncc2)nc2ccc(Cl)cc12,"inconclusive [inhibitor, single point]"
8,COc1ccc2c(c1)CC/C2=N\OC(=O)c1ccccc1C,"inconclusive [inhibitor, single point]"
9,CCCCCn1c(=O)c(C(=O)Nc2cnccn2)c(O)c2ccccc21,"inconclusive [inhibitor, partial curve]"
10,CCC(C)(C)NC(=O)C(c1ccc(C)cc1)N(Cc1cccs1)C(=O)c1ccc2c(c1)OCCO2 (stereo unspecified),"inconclusive [inhibitor, partial curve, poor fit]"
11,O=C(c1ccc(=O)oc1)N1CCCc2ccccc21,inactive
12,O=C(NCCCN1CCOCC1)c1ccc2c(c1)N(Cc1ccccc1)C(=O)c1ccccc1S2,inactive
13,O=C(Nn1cnc2ccccc2c1=O)c1ccccc1[N+](=O)[O-],inactive
14,COc1ccc2[nH]c3nc(SCC(=O)NC4CC4)nnc3c2c1,"inconclusive [inhibitor, partial curve]"
15,COc1ccc(-c2cc3nc(-c4ccccc4)cc(N4CCCC(O)C4)n3n2)cc1 (stereo unspecified),active: 8.28 µM
16,O=C1NC(=O)N(c2ccccc2)C(=O)/C1=C/c1ccc(Sc2ccccc2)o1,"inconclusive [inhibitor, single point]"
17,CS(=O)(=O)Nc1ccc(C2=NN(C(=O)CCCC(=O)O)C(c3cccs3)C2)cc1 (stereo unspecified),inactive
18,Cc1ccc(Nc2nnc(SC(C)C(=O)NC3CC3)s2)cc1 (stereo unspecified),"inconclusive [inhibitor, partial curve, poor fit]"
19,CC(=O)c1ccc(N2CCN(S(=O)(=O)c3ccc4c(c3)CC(=O)N4C)CC2)cc1,"inconclusive [inhibitor, partial curve, poor fit]"
20,O=C(Nc1cccnc1)c1ccc(COc2ccccc2Br)cc1,"inconclusive [inhibitor, single point]"
21,CC(NC(=O)NC1CCCCC1)C(c1cccs1)N1CCN(c2ccccc2)CC1 (stereo unspecified),"inconclusive [inhibitor, single point]"

row,Structure (SMILES),Potency
1,COc1ccc(-c2nc(-c3ccc(NC(=O)c4ccc(Br)o4)cc3)no2)cc1OC,"inconclusive [inhibitor, partial curve, poor fit]"
2,Cc1ccc(C(=O)Sc2cccccc2=O)cc1,active: 4.15 µM
3,CCOc1cnn(Cc2ccccc2)c(=O)c1SCc1ccccc1,"inconclusive [inhibitor, partial curve, poor fit]"
4,COc1ccc(C)c2sc(N(CCN(C)C)C(=O)/C=C/c3cccs3)nc12,"inconclusive [inhibitor, single point]"
5,CC(=O)c1ccccc1Oc1nc(CN2CCOCC2)nc2scc(-c3cccs3)c12,"inconclusive [inhibitor, partial curve, poor fit]"
6,COC(=O)C1=C(C(=O)OC)SC(=C2C(=S)C(C)(C)N(C(=O)C3CC3)c3ccccc32)S1,"inconclusive [inhibitor, single point]"
7,COc1ccc2cc3cc(C(=O)Nc4ccccc4N4CCN(C)CC4)oc3nc2c1,"inconclusive [inhibitor, full curve, poor fit]"
8,Cc1ccnc(NC(=O)CCC(=O)N(CC(=O)NCc2ccccc2)Cc2ccco2)c1,"inconclusive [inhibitor, single point]"
9,CCCCCCCN1C(Nc2ccccc2)=NC[C@@H]1Cc1ccccc1,"inconclusive [inhibitor, partial curve]"
10,CC(C)C[C@@]12C(=O)N(c3cccc(Br)c3)C(=O)N1[C@H](c1ccc(F)cc1)[C@@H]1C(=O)N(C3CCCCC3)C(=O)[C@@H]12,active: 1.85 µM
11,O=C(CN1CCN(c2ncccn2)CC1)N1CCCc2c1c(=O)oc1ccc(O)cc21,"inconclusive [inhibitor, single point]"
12,COc1ccc(CNC(=O)CCCCCn2c(SCC#N)nc3cc4c(cc3c2=O)OCO4)cc1,"inconclusive [inhibitor, partial curve, poor fit]"
13,O=C(O)c1cccc(Nc2ncnc3ccccc23)c1,inactive
14,CCN(CC)C(=O)CSc1nnc(CCNC(=O)OC(C)(C)C)o1,"inconclusive [inhibitor, full curve, poor fit]"
15,COc1cccc(C(=O)NN2CC(O)=C(c3nc(C)cs3)C2=N)c1,"inconclusive [inhibitor, single point]"
16,C[C@]12C=CC(=O)C=C1CCC1C2C(O)C[C@]2(C)C1CC[C@]2(O)C(=O)CO (stereo partly specified),inactive
17,Cc1n[nH]c(=S)n1Cc1ccccc1,inactive
18,COC(=O)C1=C(C)N(CC2CC2)C(=NCc2cccc(Cl)c2)N[C@H]1c1ccccc1,"inconclusive [inhibitor, partial curve]"
19,CCOC(=O)C1CCN(c2cc3c(cc2NC(=O)c2ccc(OC)c(OC)c2)n(C)c(=O)n3C)CC1,active: 8.28 µM
20,Cc1ccc(-c2csc(NC(=O)/C=C/c3cccs3)n2)cc1C,"inconclusive [inhibitor, partial curve, poor fit]"

# Source: PubChem BioAssay AID504832 (National Center for Advancing Translational Sciences (NCATS), 2011)
